The list shows a part of the results.

For the assay, the system named is PfHDP1 homeodomain (GST-tagged). The assay can be described thus: gcPBM binding intensity (ln(normalized median fluorescence intensity)); higher = stronger DNA binding. An outline of the steps:
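Each value is the highest Masliner-normalised natural-log median intensity across replicate spots of either orientation of a probe. The probes were primer-extended double-stranded 36-bp intergenic genomic sequences on an Agilent 4 × 180k array, alongside negative controls, exposed for 1 h to GST-tagged P. falciparum DNA-binding domains expressed in E. coli. Bound protein was picked up with Alexa488 anti-GST antibody and scanned at 488 nm.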
Regarding “TTGTTTTGTAATAAAAAAAAAATAATATAATATAAT [XGTACX_negctrl_site300]”, the “gcPBM binding intensity (ln)” value came out at 6.41. The figure for “ATATTTTTTTTTTTCACACACATTTAGATTGTATTA [CACACA_site3137]” is 6.93. To “AAAAAAAAAAAAAATTGTACGGATTCTTTTTTTTTT [XGTACX_site2898]” belongs 6.06; to “TTGTATAAAAAACTAAAAAATATAAAATAATAAGTG [CACACA_negctrl_site1704]”, 6.48; to “AAACGTTTATTTTATTGTACATATGAAAAATGCTTC [XGTACX_site6896]”, 6.77. The figure for “AACATTATCAAATAAACCATAAATCAATTCAATATG [CACACA_negctrl_site696]” is 6.23; for “AGTGTATTAAATTTTGAACACACAAAATAAAACATA [CACACA_site8483]” it is 6.45. “TTTAGACTTTTCTATAGTACATATTATATATATATA [XGTACX_site6532]”: the “gcPBM binding intensity (ln)” value was 8.46. The figure for “TTTTAATTTAAAAATTAATTTATATATATATATATA [TGCATGCA_negctrl_site447]” is 9.21; for “TATACCTTAATATACACACATACATATATATATATA [CACACA_site1339]” it is 9.13; for “TAAATCACAAAATTATGTACTAAGAAGGAGCAACAT [XGTACX_site6742]” it is 7.67.

Turning to “GGGGAAAAAGCAGGTTGTACAGTGATGTCCATATAA [XGTACX_site7606]”, the “gcPBM binding intensity (ln)” value stood at 6.64. The figure for “TAACAAAGTAAAAGAACATGCAAACACGCACACAGA [TGCATGCA_site374]” is 7.65; for “TATTGAAAAAGTGGAAAAAAGTACATCATACGGGAA [CACACA_negctrl_site1091]” it is 6.98; for “GTAAGAAACAGACACACACACATATAAATATAAATA [CACACA_site6515]” it is 6.79. As for “TTATTGCGCACAATTTGTACATATATATATATAGAA [XGTACX_site7573]”, the “gcPBM binding intensity (ln)” value came out at 8.98.

With “GAAAAATTAAAATGTGGTACAATAAAATTTTATTCA [XGTACX_site5030]”, the “gcPBM binding intensity (ln)” value is 6.08. The figure for “ATATTTATACTATACACACCCAATTTAAAAAAAAAT [CACACA_site1163]” is 7.11. To “AATTTATTAATACAAAGTACTTTCTAATATGAATTT [XGTACX_site8013]” belongs 6.46; to “AAAAAAAAAAAAAAAACACACAATTGAATTATTAAG [CACACA_site2864]”, 6.4; to “TTTTATTATTAAACATGTACCCATATTATTGTTATG [XGTACX_site5563]”, 6.65. On to “TTCTTAAAAAATCAAACACACATATATATATACATA [CACACA_site2296]”, for which the “gcPBM binding intensity (ln)” value is 6.49. The figure for “ATAAATAGAATAAAATGTACATGTAATACATATATA [XGTACX_site5475]” is 6.38. To “GTTTAGATAAAAGGGCGTACATCTATTTTTGACTAA [XGTACX_site7170]” belongs 6.15; to “TTTATAAAATATCTTTCACACATTACTATGTATTAT [CACACA_site5148]”, 6.35.

Take “ATAAAAGTTTAATATTGTACGAACATGCGTTTCTAA [XGTACX_site1487]”: the “gcPBM binding intensity (ln)” value turned out to be 5.98. Consider “AAAAAAAAAAAATATATATATATATATATAATATTT [GTGCAC_negctrl_site678]”, for which the “gcPBM binding intensity (ln)” value was determined as 6.76. To “GAATAAATAAAAATATGTACATAAATATATATATAT [XGTACX_site8858]” belongs 8.84. The figure for “AAAAAAAAATAAAAAAGTACAGGTAAATATATATAT [XGTACX_site5812]” is 7.53.

“ATACTTTAAAATAATACACACATGGAAAATAAAATT [CACACA_site697]”: the “gcPBM binding intensity (ln)” value turned out to be 6.95.

“AAGACAAATATGTATTGTACGAACGCTTTTTAATTA [XGTACX_site1961]”: the “gcPBM binding intensity (ln)” value came to 6.39.

As for “AGAATTATATCATGGTGTACTTATTTGTTTATTTCT [XGTACX_site5795]”, the “gcPBM binding intensity (ln)” value is 6.18. To “AAAAAAATATATTCCTAATTTATGATTAAAAGGAAT [CACACA_negctrl_site751]” belongs 5.83; to “ATAAATTAAACAAACACACACGTTCTTTTATTTACT [CACACA_site4556]”, 6.53; to “TTTTTTTTTGGGTGTACACATGAATATATATTTTTT [CACACA_site5254]”, 7.17.

As to “AAAACAAAAAAATTTTGTACGAAACAATACTGTAAG [XGTACX_site7992]”, the “gcPBM binding intensity (ln)” value was found to be 6.18. To “TATATATATTGTTATTGTACACAAATATAGGAAATA [XGTACX_site7110]” belongs 6.74; to “AAATTTGGTGAAGGATGTACTTTACCTAATACTTGT [XGTACX_site4825]”, 6.06; to “AGGAGGATAGTTCACAGTACCCAGTAACTCTACGAG [XGTACX_site2008]”, 6.14. To “AAAATTAATGTTGGTTGTACAAAAATTAAATATGGT [XGTACX_site66]” belongs 6.85. The figure for “GTACAAAGGACTATACATAGAAAAATATATATATAT [XGTACX_negctrl_site164]” is 8.82; for “TTTATAATTCCATAATGTACAAATAAAATAAAAAAT [XGTACX_site663]” it is 6.57. Turning to “TTATTTTATTTTTATACACACATGTTTTAATGTTCA [CACACA_site249]”, the “gcPBM binding intensity (ln)” value turned out to be 6.98. To “AATAAAAATAGGAAATGTACACATATATATATATAT [XGTACX_site1853]” belongs 9.35; to “AAAGATTTAATCTATACATGCAAATATATAGAAAAG [TGCATGCA_site373]”, 6.55; to “AAAAGATATTTGAATATACACACGATTTAAATTTAA [CACACA_site3865]”, 6.46.

As for “TATATATACACACACACATGCATGCCGATATATATA [TGCATGCA_site29]”, the “gcPBM binding intensity (ln)” value was 7.28. The figure for “GAACAAAATTTTATATGTACATAATATTTATATATA [XGTACX_site3667]” is 6.76. Turning to “AGATGCCAAGTATAAAGTACATATCAAAATGTATAT [XGTACX_site456]”, the “gcPBM binding intensity (ln)” value came to 6.17.

For “ATATATTCTATATATACATGCATATATATTATATGT [TGCATGCA_site185]”, the “gcPBM binding intensity (ln)” value was determined as 6.71.

On to “ATGCAACTATATATATATATTATATGTATGAATAAT [XGTACX_negctrl_site434]”, for which the “gcPBM binding intensity (ln)” value is 6.95. The figure for “TGAATAAATATGCAGCGTACATAATCCTCTTAAAAT [XGTACX_site8462]” is 6.12. For “GTTAAATGAAAATATGTACACACTTGAAAATTTTTA [CACACA_site2924]”, the “gcPBM binding intensity (ln)” value stood at 6.48. To “TTAATAGAAATACGTGCACACTAAAGGGAAAACAAT [CACACA_site4923]” belongs 9.36; to “ACAAGTATTAATTACACACTCAAAAAGAAAAAACAA [CACACA_site2281]”, 6.49; to “TATATTCAAAATGGTACACACAATATTTAATTGTGC [CACACA_site2631]”, 6.2.

(Values after the supplement of paper PMC11417369.)
